Laboratory results as given in PubChem BioAssay AID1963576 (National Center for Advancing Translational Sciences (NCATS), 2024).
The whole screen tested about 46,000 compounds, of which about 60 (0.1%) were called active. Inconclusive results (about 3%) are left out. Calls come from the whole dose curve; as a rule, active = well fitted inhibition curve with a large enough effect; inconclusive = small, poorly fitted or top-dose-only effect; inactive = no such curve, though single readings can be large or run the other way. The list shows a part of the results.

Experiment: Primary qHTS assay for Inhibitors of ovarian cancer metastasis using an organotypic tumor microenvironment (TME) model.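 For activity change, negative = inhibition: plate controls were DMSO wells for no effect and tomatine positive control wells for full effect.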 Note: nearly all actives have a fitted effect of over 65% in size.
Settings: SKOV3ip1-GFP adhesion/invasion on 3D omental model, fluorescence; series mostly up to 45.8 µM; activity change, negative = inhibition: at the top concentration
Method in brief: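 Primary human omental fibroblast/mesothelial 3D culture pre-formed 48 h. SKOV3ip1-GFP cells added with compounds (0.36-46 umol/L), incubated 2 h RT/16 h 37 C, fixed; GFP cells quantified at 488/509 nm.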

outcome, inactive:
COc1ccc(-n2cc(-c3ccccc3)c3c(N4CCCC(C)C4)ncnc32)cc1 (stereo unspecified), Cn1cc(CCCC(=O)NCc2cccc(Br)c2)c2ccccc21, Cc1ccc(N(CC(=O)Nc2ccc(F)cc2F)S(=O)(=O)c2cccs2)cc1, Cc1cccc(N2CCN(C(=O)C(C)n3nc(C)n4c(cc5occc54)c3=O)CC2)c1C (stereo unspecified), Cc1cc(C)c(NC(=O)c2c(C)oc3c2C2=NCCN2C=N3)c(C)c1, CCCCCCc1cc2cc(-c3nnc(-c4cccc(Cl)c4)o3)c(=O)oc2cc1O, CCc1ccc(-c2cc(C)no2)cc1S(=O)(=O)NCc1ccco1, Cc1ccc2nc(NC(=O)c3ccc(S(=O)(=O)N4CCCc5ccccc54)cc3)sc2c1, CN1CCN(C2(CNC(=O)c3ccc([N+](=O)[O-])cc3)CCCCC2)CC1, Cc1cc(C)nc(NS(=O)(=O)c2ccc(NC(=O)c3cc(=O)c4ccc(C)c(C)c4o3)cc2)n1, CCN1CCOC(=O)C1CC(=O)Nc1ccc(C)c(Cl)c1 (stereo unspecified), Nc1c(C(=O)NCCc2ccccc2)nnn1CC(=O)Nc1ccc(Cl)cc1, CCOC(=O)C1CCCN(c2c(C(=O)c3ccc(C)cc3)cnc3ccc(OCC)cc23)C1 (stereo unspecified), Cc1ccc(Cl)cc1N1CCN(C(=O)CCn2c(=O)c3cccn3c3cccnc32)CC1, Cc1oc2ncn(C)c(=O)c2c1C(=O)N(Cc1ccccc1)C(C)C, O=C(CC(c1cccs1)N1Cc2ccccc2C1=O)Nc1ccc(F)cc1F (stereo unspecified), COc1ccc(C(CNC(=O)Cc2ccc(Cl)cc2)N2CCOCC2)cc1 (stereo unspecified), O=C(CCc1ccccc1)N1CCc2c([nH]c3ccccc23)C1c1ccc(Cl)cc1 (stereo unspecified), Cc1oc2ccc(O)c(CN3CCCCC3C)c2c1C(=O)Nc1ccccc1 (stereo unspecified), CCc1ccccc1NC(=O)CSc1nc2ncccc2o1, O=c1c2c3c(sc2n(Cc2ccccc2F)c(=O)n1-c1ccc(Cl)cc1)CCCC3, Cc1cccc(C(=O)N2CCC(N3CCN(Cc4ccc(F)cc4)C(=O)C3=O)CC2)c1, Cc1cc2c(cc3c(SCc4cccc(F)c4)nnc(C)n32)o1, Cc1ccc(CSc2nnc([C@@H](N)C(C)C)o2)cc1, Cc1c(C)c2c(cc(C)c3c(-c4ccc(Br)cc4)coc32)oc1=O, Cc1cccc(NC(=O)Cn2cc(S(=O)(=O)N3CCCC3)c(S(=O)(=O)N3CCCC3)c2)c1C, CCOC(=O)c1c(C)[nH]c(C)c1S(=O)(=O)NCC(=O)Nc1cccc(SC)c1, Cc1nn(C)c(C)c1S(=O)(=O)N(CC(=O)NCCc1ccc(Cl)cc1)c1ccc(C(C)C)cc1, COc1ccc(C)cc1NC(=O)C(=O)NCCc1sc(-c2cccc(C)c2)nc1C, CCn1cc(C(=O)NCCc2ccccc2)c(=O)c2cc(S(=O)(=O)N3CCCCCC3)ccc21

Activity change, negative = inhibition, inactive:
CCc1nc2ccc(C(=O)NCc3ccccc3C)cc2nc1CC 19.9%, Cc1ccc(S(=O)(=O)NCCc2nnc3ccc(SCc4ccccc4F)nn23)cc1 5.75%, Cc1cc(C)c(NC(=O)CN2C(=O)C3(SCC(=O)N3c3ccc(F)cc3)c3ccccc32)c(C)c1 (stereo unspecified) 1.31%, Cc1ccc(NC(=O)c2oc3ccc(S(=O)(=O)N4CCCCC4)cc3c2C)c(C)c1 -18.8%, Cc1ccc(S(=O)(=O)N2CCCc3cc(NS(=O)(=O)c4ccc(F)cc4)ccc32)cc1 -23.8%, COc1cccc(NC(=O)Cn2c(=O)n(Cc3ccc(C(=O)NCc4ccc5c(c4)OCO5)cc3)c(=O)c3ccccc32)c1 39.2%, CN(C)c1ccc(CNC(=O)C2CCN(S(=O)(=O)c3ccc4c(c3)oc(=O)n4C)CC2)cc1 14.2%, CCOC(=O)C1=C(O)C(=O)N(Cc2ccccc2)C1 17.6%, O=c1c(O)c(-c2ccc(O)c(O)c2)oc2cc(O)cc(O)c12 -5.68%, COc1ccc(C2c3c(n(C)c4ccccc34)C(=O)N2CC(=O)Nc2ccc(C)cc2Cl)cc1 (stereo unspecified) -8.24%, CCc1ccc(CNC(=O)Cn2nc(-c3ccc(Cl)cc3)ccc2=O)cc1 -5.26%, CCN(CC)S(=O)(=O)c1ccc(-c2csc(=Nc3cccc(C(F)(F)F)c3)n2Cc2ccc3c(c2)OCO3)cc1 5.64%, O=C(c1cncc(Br)c1)N1CCC(N2CCCC2)CC1 3.57%, Cc1cccc(C(=O)N2CCCCC2CCN2CCCCC2)c1 (stereo unspecified) -5.07%, O=C(Nc1ccc(F)cc1)c1oc2ccccc2c1NC(=O)C1CCCCC1 -9.49%, O=C(NC1CCCCC1)c1ccc(Cn2c(SCc3ccccc3)nc3cccnc32)cc1 9.04%, COc1ccc(C2=N[C@H](c3ccc(Cl)cc3)[C@H](c3ccc(Cl)cc3)N2C(=O)N2CCNC(=O)C2)c(OC(C)C)c1 24.8%, COc1ccc(C(=O)N2c3nc(-c4ccco4)nn3C3(CCCCC3)[C@@H]3CCCC[C@@H]32)cc1OC 3.89%, Cc1cnc(C(=O)O)c[n+]1[O-] 0.149%, COCCCn1c(=O)c2sccc2n2c(CCCC(=O)Nc3ccc(F)c(F)c3)nnc12 0.94%, Cc1ccccc1-c1nc2scc(CCNC(=O)C(=O)Nc3ccc(F)cc3F)n2n1 -0.419%, Nc1c(C(=O)Nc2cccc(F)c2)sc2nc(-c3cccs3)ccc12 4.74%, COc1ccc(CNC(=O)CCC2N=C3c4ccccc4N=C(SCc4ccc(F)cc4)N3C2=O)cc1 (stereo unspecified) 2.35%, COc1ccc(OC)c(NC(=O)c2c(NCc3ccc(OC)c(OC)c3)sc3c2CCC(C)C3)c1 (stereo unspecified) -2.94%, O=C(C1CCCCC1)N(Cc1cccnc1)c1nc2c(F)cc(F)cc2s1 0.642%, Cc1ccccc1OCCCCn1c(C2CC(=O)N(c3ccccc3Cl)C2)nc2ccccc21 (stereo unspecified) 5.8%, O=C(CSc1nc2c([nH]c3ccccc32)c(=O)n1-c1ccccc1)c1ccc(Cl)cc1 22.9%, CCCn1c(CCC(=O)Nc2cccc(C)c2C)nc2cccnc21 -5.81%, Cc1ccc(Nc2c(-c3ccc(N4CCOCC4)cc3)nc3c(C)cccn23)cc1 -6.87%, COc1ccc(CC(=O)Nc2ccc3nc(Nc4cccc(Cl)c4)cc(C)c3c2)cc1 -9.19%, COc1ccc(CCNC(=O)c2cc3c(-c4ccc(OC)c(OC)c4)nn(C)c3s2)cc1OC -6.57%, Cc1cc(-c2ccc(S(=O)(=O)Nc3cc(Cl)ccc3C)s2)on1 -28.1%, COCCn1c(SCC(=O)Nc2cccc(C)c2C)nc2c(oc3ccccc32)c1=O -12.3%, CCOC(=O)c1c(C)[nH]c(CCC(=O)NCc2cccc(OC)c2)c1C -20%, Cc1ccc(Cn2c(CO)cnc2SCc2cccc(F)c2)cc1 65.7%, Cc1cccc(CC(=O)NC2CC(=O)N(c3ccccc3)C2)c1 (stereo unspecified) -7.65%, COc1ccc(NC(=O)CCc2nc3cccnc3n2-c2ccccc2)cc1Cl 5.11%, COC(=O)c1ccc(Cl)cc1NC(=O)NC(C)c1c(-n2cccc2)sc(C)c1C (stereo unspecified) -1.75%, Cc1ccccc1CSCCNC(=O)C1CCN(S(=O)(=O)Cc2ccccc2)CC1 -16%, Cc1ccc(O)c(NC(=O)c2cc(-c3ccc(F)cc3)on2)c1 -1.04%, CC(C)c1ccc(C2c3c(oc4ccc(Cl)cc4c3=O)C(=O)N2CCCN2CCOCC2)cc1 (stereo unspecified) -0.331%, COc1cc(NC(=O)CN2C(=O)C(c3ccc(Cl)cc3)=NC23CCCCC3)cc(OC)c1 -7.86%, CC(=O)c1ccc(NC(=O)Cn2c(=O)cc(C)c3c(C)nn(-c4cccc(F)c4)c32)cc1 -8.43%, CCOC(=O)c1cccc(NC(=O)CCn2c(=O)oc3ccccc32)c1 1.41%, CCC(Oc1ccccc1)C(=O)Nc1cccc(OCc2cc(=O)n3cccc(C)c3n2)c1 (stereo unspecified) 10.5%, Cc1cccc(-c2nc3c4c(-c5ccccc5)c(-c5ccccc5)oc4ncn3n2)c1 6.33%, Cc1ccc(C2N=C(N)Nc3nc4ccccc4n32)cc1 (stereo unspecified) 9.92%, CCN(CC)c1ccc(C(=O)NCc2nc3cccnc3n2Cc2ccc(C)cc2)cc1 -8.28%, COc1cccc(NC(=O)CSc2nc(C)c(Cc3ccccc3)c(=O)[nH]2)c1 1.51%, CCC1CCc2nc3sc(C(=O)Nc4cccc(F)c4)c(N)c3cc2C1 (stereo unspecified) 4.53%, O=C(NCC(c1cccnc1)N1CCN(c2ccccc2F)CC1)c1ccc(F)cc1 (stereo unspecified) 5.59%, COc1ccc(OC)c(CNC(=O)c2c(C)oc3ncn(CC(C)C)c(=O)c23)c1 0.0303%, CCCCOc1ccc(C2=NC(c3cccs3)=Nc3ccc(OC)cc3N2)cc1 -0.955%, COc1cccc2sc(N(Cc3cccnc3)C(=O)c3ccco3)nc12 2.41%, Cc1cccc(NC(=O)c2cnc3sc(N4CCCC4)nn3c2=O)c1C 3.29%, CSCCC(NS(=O)(=O)c1ccc2c(c1)oc(=O)n2C)C(=O)Nc1ccc(F)c(Cl)c1 (stereo unspecified) -0.595%, COc1ccc(NC(=O)c2c(NCc3cccc(F)c3)sc3c2CCC3)c(OC)c1 -2.37%, Cc1ccccc1C(=O)Nc1ccc(S(=O)(=O)N2CCC(c3nc4ccccc4s3)CC2)cc1 -9.61%, Cc1cc(C)cc(NC(=O)Cc2csc(COc3cccc(C)c3)n2)c1 17.8%, O=C(CN1C=NS(=O)(=O)c2ccccc21)Nc1ccccc1F 9.22%, O=C(NCc1ccccc1F)C1CCCN(C(=O)N2CCOc3ccccc32)C1 (stereo unspecified) -4.82%, CCOc1ccc(S(=O)(=O)N(CC(=O)Nc2ccc(OC)cc2OC)c2ccccc2)cc1 2.83%, CCCNC(=O)C1CCC(Cn2c(=O)c3sccc3n(CC(=O)NCc3ccccc3)c2=O)CC1 (stereo unspecified) 5.04%, CCOC(=O)c1ccc(NC(=O)CCCc2nc(-c3cc(OC)c(OC)c(OC)c3)no2)cc1 2.22%, COc1ccc(N2C(=O)CS(=O)(=O)C23C(=O)N(Cc2ccccc2F)c2ccccc23)cc1Cl (stereo unspecified) -5.97%, Cc1nn(C(C)C(=O)N2CCN(c3ccc(F)cc3)CC2)c(=O)c2c1sc1ccccc12 (stereo unspecified) 2.29%
